Laboratory results: PubChem BioAssay AID588855 (National Center for Advancing Translational Sciences (NCATS), 2011)
The campaign covered roughly 410,000 compounds. About 5,000 (1.2%) were called active. The shares of active, inactive and inconclusive entries below differ from those in the screen. Calls come from the whole dose curve; as a rule, active = well fitted inhibition curve with a large enough effect; inconclusive = small, poorly fitted or top-dose-only effect; inactive = no such curve, though single readings can be large or run the other way. Potencies beside an inconclusive call are fits to weak or partial responses and may not hold up.

Experiment: qHTS for Inhibitors of TGF-b; note: nearly all actives have a fitted effect of over 65% in size
Settings: HepG2 CAGA-GFP TGF-b/SMAD3 reporter, GFP fluorescence, 18 h, TGF-beta stimulated, 500 pg/mL final; series mostly up to 46.1 µM; activity, negative = inhibition: at the top concentration
In short: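 Inhibition was scored as loss of TGF-beta-induced (500 pg/mL final, 18 hours, 37 degrees C) GFP in HEPG2 cells carrying a CAGA-GFP reporter, in DMEM with 1% FBS. Well GFP was summed per cell; Activity was normalised to unstimulated and stimulated DMSO wells, then concentration-response fitting.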
% is set by controls: 0 for no effect and ±100 for the full control effect; potency is the fitted concentration of half-maximal effect; tags give direction and shape of the fitted curve.

SMILES	Potency	activity, negative = inhibition
CCOC(=O)C1=CCN(S(=O)(=O)c2cccc(Cl)c2)C1c1cccc(F)c1 (stereo not drawn)	inconclusive: 12.6 µM [inhibitor, partial curve, poor fit]	
O=C(CNC(=O)C1CCCCC1)OCc1cc(=O)oc2ccc3ccccc3c12	inconclusive: 0.398 µM [inhibitor, partial curve, poor fit]	
CN(C)C(C)(C)C#CC(O)(c1ccccc1)c1ccccc1		inactive: 2.21%
O=C(Nc1ccc2oc(-c3ccncc3)nc2c1)c1ccc2c(c1)OCCO2	inconclusive: 35.5 µM [inhibitor, partial curve, poor fit]	
COc1ccc2[nH]c3c(NCCC4=CCCCC4)ncnc3c2c1	inconclusive: 22.4 µM [inhibitor, partial curve, poor fit]	
COc1ccc(Cl)cc1NC(=O)CCCN1C(=O)C(c2ccccc2)Oc2cccnc21 (stereo not drawn)		inactive: -19.7%
CC(=O)N1CCN(c2ccc(NC(=S)NC(=O)c3ccccc3)cc2)CC1		inactive: -11%
COc1cc2c(cc1OC)C(COc1cc(C)cc(C)c1)N(C(=O)COc1ccccc1)CC2 (stereo not drawn)	inconclusive: 11.2 µM [inhibitor, single point]	
COc1cccc(C2NC(=O)NC(C)=C2C(=O)Nc2ccc(C)cc2)c1 (stereo not drawn)	inconclusive: 0.126 µM [inhibitor, full curve, poor fit]	
COc1ccccc1CNC(=O)C(C)NS(=O)(=O)c1ccc(Br)cc1 (stereo not drawn)		inactive: -0.507%
CCSc1nnc(NC(=O)NC(CC)(C(F)(F)F)C(F)(F)F)s1	active: 12.6 µM	
Cc1onc(-c2ccccc2Cl)c1C(=O)N1CCCCCC1		inactive: 11.7%
CN(CCOc1ccc(Cl)cc1)CC(=O)Nc1ccc(OC(F)(F)F)cc1	inconclusive: 11.2 µM [inhibitor, single point]	
O=C(NC(=S)Nc1ccc(CN2CCOCC2)cc1)c1ccc(-c2cccc(Cl)c2)o1	inconclusive: 4.47 µM [inhibitor, partial curve]	
CC(Sc1n[nH]c(N)n1)C(=O)NC1CCCCC1C (stereo not drawn)		inactive: 7.45%
Cc1cccc(C(O)C(O)c2cccc(C)n2)n1 (stereo not drawn)		inactive: -3.25%
O=C1C=C(c2ccc(C(=O)O)c(Cl)c2)C[C@@H](c2ccc3c(c2)OCO3)C1	inconclusive: 2.82 µM [inhibitor, single point]	
COc1ccccc1N(CC(=O)N/N=C(\C)c1ccccc1O)S(=O)(=O)c1ccc(C)cc1	inconclusive: 22.4 µM [inhibitor, single point]	
Cc1nc2ncnn2c(C)c1CCC(=O)N1CCc2ccccc2C1		inactive: -5.94%
Cc1nncn1-c1ccc(C(=O)Nc2cc(F)ccc2F)cc1	inconclusive: 35.5 µM [inhibitor, single point]	
CCN(Cc1cc2ccccc2[nH]c1=O)S(=O)(=O)c1ccc(OC)cc1		inactive: -4.78%
COc1ccc(N2CCN(C(=O)[C@H](C)N3C(=O)C4CC=CCC4C3=O)CC2)cc1 (stereo partly drawn)		inactive: 10.4%
C=C1C(=O)C23C(O)C1CCC2C12CCCC(C)(COC(C)=O)C1C(O)C3(O)OC2 (stereo not drawn)	active: 2 µM	

SMILES	Potency	activity, negative = inhibition
COc1ccc(/C=C/C(=O)Nc2ccccc2)cc1S(=O)(=O)N1CCOCC1	inconclusive: 35.5 µM [inhibitor, single point]	
COc1ccc(-c2ccc(CCC(=O)O)n2CC(=O)Nc2ccccc2C)cc1		inactive: -4.23%
CCN1CCN(c2ccc(NC(=O)c3ccc(C#N)cc3F)cc2Cl)CC1		inactive: 5.33%
CC(=O)NNC(=O)c1[nH]c2ccc(Br)cc2c1-c1ccccc1	inconclusive: 35.5 µM [inhibitor, single point]	
CS/C(N)=N/N=C/c1cc(Br)cc(Br)c1O	active: 6.31 µM	
O=C(COc1ccc(-c2nnco2)cc1)N1CCOCC1	inconclusive: 15.8 µM [inhibitor, single point]	
COc1ccc(NC(=O)c2ccc(S(=O)(=O)N(C)C)cc2)cc1OC	inconclusive: 2.82 µM [inhibitor, single point]	
CCCCOc1ccc(N(CC(=O)NC(C)(C)CC)C(=O)CCC(=O)Nc2ccccn2)cc1	inconclusive: 35.5 µM [inhibitor, single point]	
N#Cc1c(-c2ccc(Cl)cc2)n(O)c2ccccc12	inconclusive: 7.08 µM [inhibitor, partial curve, poor fit]	
Cc1cc(C)cc(-n2ncc3c2CCCC3NC(=O)c2csnn2)c1 (stereo not drawn)		inactive: -1.36%
CCNC(=O)C1CCCN(C(=O)c2ccccc2OC(F)(F)F)CC1 (stereo not drawn)		inactive: 7.63%
CCOc1ccc(NC(=O)C2CCCN(S(=O)(=O)c3ccc4[nH]c(=O)ccc4c3)C2)cc1 (stereo not drawn)	inconclusive: 17.8 µM [inhibitor, partial curve, poor fit]	
CC(=O)Nc1ccc(-c2nnc(SCc3ccc(C)cc3)n2C)cc1	inconclusive: 22.4 µM [inhibitor, single point]	
Cc1ccc(NC(=O)C(=O)c2cc(C)n(-c3ccc(F)cc3)c2C)cc1C	inconclusive: 35.5 µM [inhibitor, single point]	
COc1cccc(-n2ccn(CC(=O)c3ccc(F)cc3)c(=O)c2=O)c1	inconclusive: 0.562 µM [inhibitor, partial curve, poor fit]	
CC(=O)c1cccc(-c2cnc3c(NC=O)cc(-c4ccc(C(=O)N5CCOCC5)cc4)cn23)c1	inconclusive: 2.24 µM [inhibitor, partial curve, poor fit]	
CCOc1ccc(NC(=O)c2oc3ccccc3c2NC(=O)c2c(F)cccc2F)cc1		inactive: 0.243%
CCCSc1ccc([C@@H]2[C@H]3C(=O)N(CC)C(=O)[C@H]3[C@]3(C(=O)OC)CCCN23)cc1OC	inconclusive: 0.1 µM [inhibitor, full curve, poor fit]	
O=C(NCC(c1cccs1)N1CCOCC1)c1ccc(Cl)cc1 (stereo not drawn)		inactive: -17.9%
COc1ccc(NC(=O)C(Cl)=C(Cl)Cl)cn1		inactive: 0.483%
S=C(CSc1ccccc1)Nc1cccc2ccccc12	inconclusive: 22.4 µM [inhibitor, single point]	
COc1ccc(CCNC(=O)C(=O)NCC(c2ccc3c(c2)OCO3)N2CCOCC2)cc1OC (stereo not drawn)		inactive: 0%
S=C(NCc1ccccc1)Nc1ccc2ccccc2c1	inconclusive: 35.5 µM [inhibitor, single point]	

SMILES	Potency	activity, negative = inhibition
CC(C)(C)OC(=O)NCCCCCNC(=O)c1nc[nH]c1C(=O)NCc1ccc(CNC(=O)OC(C)(C)C)cc1	inconclusive: 28.2 µM [inhibitor, single point]	
CCCCCNC(=O)c1ccc2c(=O)n(CCCN3CCCC3=O)c(=S)[nH]c2c1	inconclusive: 22.4 µM [inhibitor, single point]	
CCOc1cc2c3c(c1)C1(C(=O)N3C(C)(C)C=C2C)C(C#N)=C(N)Oc2cc(O)ccc21 (stereo not drawn)	inconclusive: 17.8 µM [inhibitor, single point]	
Cc1ccc(S(=O)(=O)CCC(=O)c2cccc([N+](=O)[O-])c2)cc1	active: 11.2 µM	
CCCCCCSc1ccc([C@H]2N[C@@](C)(C(=O)OC)[C@H]3C(=O)N(C)C(=O)[C@@H]23)cc1	inconclusive: 35.5 µM [inhibitor, partial curve, poor fit]	
CCNC(=O)COC(=O)c1cc(-c2ccc(OC)cc2)nc2ccccc12		inactive: -0.313%
O=C(CN1C(=O)COc2ccc(S(=O)(=O)Nc3ccccc3)cc21)Nc1cccc(Cl)c1	inconclusive: 17.8 µM [inhibitor, partial curve, poor fit]	
O=C(O)/C=C\C(=O)Nc1ccccc1C(=O)N1CCN(c2ccc(Cl)cc2)CC1	inconclusive: 1.26 µM [inhibitor, partial curve, poor fit]	
Cc1cnc(C(=O)Nc2ccc(F)cc2)cn1	inconclusive: 3.98 µM [inhibitor, partial curve, poor fit]	
O=C(c1cccs1)n1nc(-c2ccco2)nc1SCc1ccccc1	inconclusive: 0.562 µM [inhibitor, full curve, poor fit]	
CCN(CC)S(=O)(=O)c1ccc(N2CCCC2)c(NS(=O)(=O)c2ccc([N+](=O)[O-])cc2)c1		inactive: -27.8%
Cc1cc(NC(=O)CN2C(=O)c3ccccc3C2=O)no1	inconclusive: 28.2 µM [inhibitor, single point]	
CCCC(=O)NC(=S)Nc1cccc(Cl)c1N1CCCC1	inconclusive: 35.5 µM [inhibitor, single point]	
COc1ccc(-n2cc(C(=O)c3cc4ccccc4oc3=O)c(C(C)=O)n2)cc1		inactive: 0%
CCN(c1ccccc1)c1nnc(NC(=O)Nc2ccc(Br)cc2F)s1		inactive: 0.29%
O=C(C1CC1)N1CCN(c2ccc([N+](=O)[O-])cc2-n2cccc2)CC1	inconclusive: 35.5 µM [inhibitor, single point]	
Cc1cccc(CSCCNC(=O)CSCc2ccc([N+](=O)[O-])cc2)c1	inconclusive: 35.5 µM [inhibitor, single point]	
COc1ccc2occ(CC(=O)Nc3ccc(S(=O)(=O)Nc4nc(C)cc(C)n4)cc3)c2c1	inconclusive: 0.316 µM [inhibitor, full curve, poor fit]	
Cc1cccn2cc(-c3cccc(S(=O)(=O)N4CCOCC4)c3)nc12	inconclusive: 17.8 µM [inhibitor, single point]	
O=c1cc(O)c2sc3nc(C(F)(F)F)c4c(c3c2[nH]1)CCCCC4	inconclusive: 4.47 µM [inhibitor, single point]	
O=C1N/C(=N/S(=O)(=O)Cc2ccccc2)S/C1=C/c1ccc2c(c1)OCO2	inconclusive: 35.5 µM [inhibitor, single point]	
COc1ccc(S(=O)(=O)Nc2ccc3c(c2)CC(=O)N([C@@H](C)CO)C[C@@H](C)[C@@H](CN(C)Cc2ccccc2)O3)cc1	inconclusive: 25.1 µM [inhibitor, single point]	
